SMILES strings stand for the structures. Among all 50,000 compounds or so, about 800 (1.6%) showed an effect of 50% or more. The list shows a part of the results.

The target in this test is Bcl-2-like protein 10 (Homo sapiens) (UniProt Q9HD36). Briefly: TR3 peptide-Bcl-B binding displacers, biochemical primary FP assay, phenotype converters (AID 1240).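 Also: 0% = Bcl-B with tracer peptide and DMSO and 100% = tracer peptide lacking Bcl-B.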 The note with it: GST-Bcl-B / FITC-TR3 peptide fluorescence polarization; stronger effect = higher value; compound at 3.75 mg/L.
Sequence of UniProt Q9HD36 (Q9HD36 whole entry, looked up): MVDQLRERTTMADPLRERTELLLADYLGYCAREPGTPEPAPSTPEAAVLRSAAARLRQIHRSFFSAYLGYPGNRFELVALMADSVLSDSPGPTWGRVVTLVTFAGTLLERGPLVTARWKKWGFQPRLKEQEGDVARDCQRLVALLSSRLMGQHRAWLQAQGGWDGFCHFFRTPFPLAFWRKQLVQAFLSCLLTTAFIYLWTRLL
Consider `Cc1ccc(C(=O)Nc2sc3c(c2C(N)=O)CCCCCC3)cc1`, for which the displacement is 0.4%.

Turning to `O=C(NN1C(=O)/C(=C/c2ccc(Br)cc2)SC1=S)c1cccc(Cl)c1`, the displacement was determined as 6.3%. Consider `COc1ccc(/C=C/C(=O)Nc2ncc(Cc3cccc(C(F)(F)F)c3)s2)cc1`, for which the displacement was determined as 20.8%. Turning to `COc1ccc(/C=C2/C(=O)NN(c3ccccc3)C2=O)c(OC)c1`, the displacement worked out at 2.1%. Take `COc1cccc(NC(=O)CC(C)=O)c1`: the displacement is -2.4%. For `COc1cc(/C=N\NC(=O)c2ccc(Br)cc2)cc(I)c1O` the value was 6.8%; for `Cc1ccccc1NS(=O)(=O)c1ccc(NC(=O)c2ccc(C(F)(F)F)cc2)cc1`, -0.5%; for `Cc1ccc(-c2cc(-c3ccccc3)nc(N3CCCC3)n2)cc1`, 5.5%. The result for `COc1ccc(NC(=O)Nc2nnc(CCc3ccccc3)s2)cc1` reads 6.9%; that for `O=c1c2ccccc2c(-c2ccccc2)nn1Cc1cccc(Br)c1`, -4.4%. With `CSc1ccc(S(=O)(=O)N(CC(=O)Nc2ccc(C)cc2C)c2ccc(C)cc2)cc1`, the displacement amounted to 13.6%.

As to `O=S(=O)(Nc1cccc(-c2nc3ccccc3s2)c1)c1ccccc1`, the displacement was determined as 9.6%. The result for `C/C(=N\NC(=O)c1cc(C23CC4CC(CC(C4)C2)C3)[nH]n1)c1cccs1` reads -5.8%.

On to `Cc1c(C(=O)Nc2ccc(Cl)cc2Cl)cccc1[N+](=O)[O-]`, for which the displacement was 10.6%. For `O=C1N=c2ccccc2=C1c1sc(=Nc2ccccc2)n(-c2ccccc2)c1O` the value was -2.5%. The result for `Cc1ccc(-c2nc3cc(NC(=O)c4cccc([N+](=O)[O-])c4C)ccc3o2)cc1` reads -3.3%; that for `C/C(=C\C(=O)c1ccccc1)Nc1ccccc1O`, 7.5%; that for `CCOc1ccccc1-c1nc(=S)[nH][nH]1`, 4.5%.

In the case of `CCOc1ccc(N2C(=O)NC(=O)C(=S(C)C)C2=O)cc1`, the displacement amounted to 0.5%. For `COC(=O)c1ccccc1NC(=O)COc1cccc(C)c1C` the value was 5.6%; for `CCC(C)C(=O)N1c2ccccc2C(N(C(=O)COc2ccccc2)c2ccccc2)CC1C` (stereo unspecified), -3.8%. As to `Cn1c2c(c3cc(F)ccc31)CCCC2=O`, the displacement is 8.3%. Turning to `O=C(Nc1c(Cl)cccc1Cl)C1CCCC1`, the displacement was -9.7%.

With `O=C(COc1ccc(Cl)cc1Br)N1CCN(c2ccccc2)CC1`, the displacement was -11.4%.

With `Cc1cccc(-c2noc(-c3ccco3)n2)c1`, the displacement is 5.5%.

Turning to `CCOc1cccc(N2C(=O)/C(=C/c3cc(Cl)c(O)c(OC)c3)C(=O)NC2=S)c1`, the displacement is -9.2%. With `COc1ccc(C(CC(=O)c2ccc(C)cc2)Nc2ccc(I)cc2)cc1OC` (stereo unspecified), the displacement was -7%.

Regarding `O=C1CS/C(=C/C(=O)c2ccccc2)N1`, the displacement is 3.8%. For `O=C(/C=C/c1ccccc1)NC(=S)Nc1ccccc1O`, the displacement is 10%. `O=C(NCCCn1ccnc1)c1ccc(Cl)cc1`: the displacement was -15.9%. The result for `O=S(=O)(Nc1ccc(F)cc1)c1ccc2c(c1)Cc1cc(S(=O)(=O)Nc3ccc(F)cc3)ccc1-2` reads 7.9%; that for `CCCCOc1cccc(C(=O)Nc2ccc(NC(=O)c3ccco3)c(OC)c2)c1`, 4.5%. The result for `CCc1cccc(CC)c1NC(=O)c1cc(-c2cccs2)nc2ccccc12` reads -3.7%; that for `COc1ccccc1CC(=O)Nc1cc([N+](=O)[O-])ccc1C`, 19.3%; that for `O=C1C2CCCCC2C(=O)N1CN1CCCCC1` (stereo unspecified), 0.1%. `COc1ccccc1NC(=O)Cc1ccccc1[N+](=O)[O-]`: the displacement is -10.1%. For `COc1ccccc1C(=O)N1CCN(C=O)CC1` the value was -14.1%. For `O=C(/C=C/c1ccc2c(c1)OCO2)Nc1ccncc1` the value was 3.9%.

In the case of `CN1CCN(C(=O)c2nn3c(C(F)(F)F)cc(-c4ccccc4)nc3c2Cl)CC1`, the displacement was determined as 0%. `CCc1cc(C)cc(OCCOc2cccc(C=C3C(=O)NC(=S)NC3=O)c2)c1`: the displacement came to 3%.

Regarding `Cc1ccc(N2C(=O)C3C4C=CC(C)(O4)C3C2=O)cc1Br` (stereo unspecified), the displacement is 7.6%. For the molecule `C=CCOCC(O)CS(=O)Cc1ccccc1` (stereo unspecified), the displacement was -8%. The result for `Cc1ccc(C(=O)Nc2ccc(Cl)cn2)cc1[N+](=O)[O-]` reads 9.6%; that for `CN(C)c1ccc(/C=C2/C(=O)NN(c3ccc(Cl)cc3)C2=O)cc1Br`, 1.9%; that for `O=S(=O)(Nc1ccc(O)c(-c2c(O)ccc3ccccc23)c1)c1ccccc1`, 4.5%. For `O=C(Nc1cccc(I)c1)c1ccc(-c2ccccc2)cc1` the value was 21.8%.

Turning to `CC(=O)N1CCC(=O)N1c1ccccc1`, the displacement worked out at 11.5%. For `Cc1cc(=O)oc2c1ccc1oc(/C(=N\O)c3ccccc3)c(-c3ccccc3)c12` the value was -48.1%; for `O=C(c1ccc(I)cc1)N1CCc2ccccc21`, -0.9%; for `CN(C)/C=C1\Cc2ccccc2NC1=C(C#N)C#N`, -27.8%. For `C=CCOc1ccc(Cl)cc1/C=C1/SC(=S)NC1=O` the value was -2.6%. The result for `O=C1c2ccccc2C(=O)N1c1ccc2nc(SCc3ccc(F)cc3)sc2c1` reads 6.6%; that for `O=C(O)c1cccc(N2C(=O)C3C4C=CC(C4=C(c4ccccc4)c4ccccc4)C3C2=O)c1` (stereo unspecified), 7.6%. `O=C(Nc1ccc2c3c(cccc13)CC2)c1ccc(Br)o1`: the displacement came to 5.4%. For `CC1(C)CC(NC(=S)Nc2ccc([N+](=O)[O-])cc2)CC(C)(C)N1` the value was 10.3%; for `O=C(NC1C2CC3CC(C2)CC1C3)C(c1ccccc1)c1ccccc1` (stereo unspecified), -7.8%; for `COc1cc(C2CC(=O)NC(SCC(N)=O)=C2C#N)cc(Br)c1O` (stereo unspecified), -27.9%. The result for `CC1=C(C(=O)Nc2ccc(C)cc2)C(c2ccc(F)cc2)NC(=S)N1` (stereo unspecified) reads -4.5%; that for `Cc1cc(C=C2C(=O)NC(=O)NC2=O)c(C)n1-c1ccc(Cl)cc1`, 106%. The result for `COc1ccc(CCNC(=O)COc2cccc3ccccc23)cc1` reads 4.4%; that for `Cc1ccccc1C(=O)Nc1sc2c(c1C(=O)Nc1cccc3ccccc13)CCC2`, -2.8%. With `C(=N\c1nc2ccccc2n1CCN1CCCCC1)/c1ccc2c(c1)OCO2`, the displacement amounted to 7.1%. The result for `CCCOc1cccc(C(=O)Nc2cccc(OC)c2)c1` reads 11.2%; that for `OCn1ncn(-c2ccccc2)c1=S`, -7.8%. For `O=C1c2ccccc2C(=O)N1c1ccc(S(=O)(=O)N2CCOCC2)cc1`, the displacement stood at 11.8%. Consider `CCOC1(c2ccccc2)c2ccccc2Oc2ccccc21`, for which the displacement was -1.1%.

As for `COc1cc(OC)c([N+](=O)[O-])cc1/C=C1/C(=O)NC(=S)N(c2cccc(Br)c2)C1=O`, the displacement amounted to 5.9%.

`O=C(Cn1cc(/C=C2/C(=O)NC(=O)N(c3cccc(Cl)c3)C2=O)c2ccccc21)Nc1ccccc1`: the displacement was determined as 94.7%. The result for `O=C(COc1ccccc1Cl)Nc1cccc(NC(=O)c2ccccc2)c1` reads -0.2%; that for `COc1cc(/C=C2\C(=O)NC(=O)N(c3cc(C)cc(C)c3)C2=O)c(Br)cc1O`, -5.9%. The result for `N#CC1=C(N=Cc2ccccc2O)CCC1` reads -2.5%.
